Laboratory results taken from paper PMC6664820, “Novel natural and synthetic inhibitors of solute carriers SGLT1 and SGLT2” (Pharmacology Research & Perspectives, 2019).
Hit rate of the full screen: of about 1,900 compounds, about 40 (2%) showed an effect of 50% or more. This is one part of the list.

Target: human SGLT1 (hSGLT1) (human, UniProt P13866)
Test: primary screen, percent of control activity; higher = less effect of the substance
Set-up: single well
Conditions: 50 µM
Method in brief: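 Single-point screen at 50 µmol/L in CHO-hSGLT1 cells, with 160 µmol/L 1-NBD-glucose in glucose-free DMEM for 90 min at 37°C. Fluorescence from isopropanol extracts was calibrated, and CHO wild-type uptake was subtracted. Data are percent of uptake without compound.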

Sequence of human SGLT1 (hSGLT1) (P13866 whole entry, looked up): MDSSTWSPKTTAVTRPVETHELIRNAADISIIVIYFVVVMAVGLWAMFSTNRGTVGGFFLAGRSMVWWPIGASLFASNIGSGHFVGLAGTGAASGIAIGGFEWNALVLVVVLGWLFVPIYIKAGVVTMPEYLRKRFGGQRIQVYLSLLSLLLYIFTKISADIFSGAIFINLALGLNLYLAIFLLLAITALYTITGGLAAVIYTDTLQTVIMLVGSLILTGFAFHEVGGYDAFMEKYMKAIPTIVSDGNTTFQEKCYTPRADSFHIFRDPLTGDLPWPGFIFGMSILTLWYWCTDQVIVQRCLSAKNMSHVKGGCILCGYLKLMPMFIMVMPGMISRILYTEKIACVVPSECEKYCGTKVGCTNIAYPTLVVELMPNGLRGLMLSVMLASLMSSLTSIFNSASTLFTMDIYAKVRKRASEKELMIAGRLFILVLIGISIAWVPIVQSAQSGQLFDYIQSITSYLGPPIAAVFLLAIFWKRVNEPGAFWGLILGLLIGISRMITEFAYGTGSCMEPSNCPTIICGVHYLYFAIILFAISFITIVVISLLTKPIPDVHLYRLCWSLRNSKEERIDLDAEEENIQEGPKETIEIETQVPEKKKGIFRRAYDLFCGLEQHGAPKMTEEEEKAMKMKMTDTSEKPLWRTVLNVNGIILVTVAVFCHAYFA

**Q.** With `Oc1c(Cl)cc(Cl)c2cccnc12` as the molecule, how does the “NORMALIZED SGLT1 ACTIVITY (%)” value read?
**A.** 48%

**Q.** How did the “NORMALIZED SGLT1 ACTIVITY (%)” value turn out when `CN(C)CCC=C1c2ccccc2C=Cc2ccccc21.Cl` was run?
**A.** 50%

**Q.** Which “NORMALIZED SGLT1 ACTIVITY (%)” value does the source give for `CC[C@H]1OC(=O)[C@H](C)[C@@H](O[C@H]2C[C@@](C)(OC)[C@@H](O)[C@H](C)O2)[C@H](C)[C@@H](O[C@@H]2O[C@H](C)C[C@H](N(C)C)[C@H]2O)[C@](C)(O)C[C@@H](C)/C(=N\OCOCCOC)[C@H](C)[C@@H](O)[C@]1(C)O` here?
**A.** 93%

**Q.** Which “NORMALIZED SGLT1 ACTIVITY (%)” value does the source give for `Cc1coc2ccccc2c1=O` here?
**A.** 118%

**Q.** With `CC(=O)OCC(=O)[C@@]1(O)CCC2C3CC[C@@H]4C[C@H](O)CC[C@]4(C)C3C(=O)C[C@@]21C` (stereo partly shown) as the molecule, how does the “NORMALIZED SGLT1 ACTIVITY (%)” value read?
**A.** 85%

**Q.** Which “NORMALIZED SGLT1 ACTIVITY (%)” value does the source give for `C[C@@](Cc1ccc(O)c(O)c1)(NN)C(=O)O` here?
**A.** 105%

**Q.** How did the “NORMALIZED SGLT1 ACTIVITY (%)” value turn out when `CC12CCC3C(CC3(C)C)C(C)(CCC1=O)O2` (stereo not shown) was run?
**A.** 105%

**Q.** Which “NORMALIZED SGLT1 ACTIVITY (%)” value does the source give for `CC(=O)N(O)CCCCCNC(=O)CCC(=O)N(O)CCCCCNC(=O)CCC(=O)N(O)CCCCCN.CS(=O)(=O)O` here?
**A.** 94%

**Q.** With `Nc1ccccc1C(=O)CC(N)C(=O)O` (stereo not shown) as the molecule, how does the “NORMALIZED SGLT1 ACTIVITY (%)” value read?
**A.** 103%

**Q.** Which “NORMALIZED SGLT1 ACTIVITY (%)” value does the source give for `COc1cc(O)cc(OC)c1OC` here?
**A.** 127%

**Q.** Which “NORMALIZED SGLT1 ACTIVITY (%)” value does the source give for `Cl.Nc1c(Br)cc(Br)cc1CNC1CCC(O)CC1` (stereo not shown) here?
**A.** 99%

**Q.** Which “NORMALIZED SGLT1 ACTIVITY (%)” value does the source give for `CO[C@H]1C[C@H](O[C@@H]2/C(C)=C/C[C@@H]3C[C@@H](C[C@]4(CC[C@H](C)[C@@H](C5CCCCC5)O4)O3)OC(=O)[C@@H]3C=C(C)/C(=N/O)[C@H]4OC/C(=C\C=C\[C@@H]2C)[C@]43O)O[C@@H](C)[C@@H]1O` here?
**A.** 111%

**Q.** For `Cn1c(=O)[nH]c(=O)c2nc[nH]c21`, which “NORMALIZED SGLT1 ACTIVITY (%)” value is on record?
**A.** 132%

**Q.** Which “NORMALIZED SGLT1 ACTIVITY (%)” value does the source give for `C=C1C2CC[C@H]3[C@]4(C)C[C@H](OC5OC(CO)C(OS(=O)(=O)[O-])C(OS(=O)(=O)[O-])C5OC(=O)CC(C)C)C[C@@H](C(=O)O)[C@H]4CC[C@]3(C2)[C@H]1O.[K+].[K+]` (stereo partly shown) here?
**A.** 94%

**Q.** How did the “NORMALIZED SGLT1 ACTIVITY (%)” value turn out when `C[C@]12CCC3c4ccc(OC(=O)c5ccccc5)cc4CCC3C1CCC2=O` (stereo partly shown) was run?
**A.** 105%

**Q.** `COCCc1ccc(OCC(O)CNC(C)C)cc1.O=C(O)C(O)C(O)C(=O)O` (stereo not shown) was tested. Which “NORMALIZED SGLT1 ACTIVITY (%)” value did it give?
**A.** 93%

**Q.** `NC(=O)c1ccc[n+]([C@@H]2O[C@H](COP(=O)([O-])OP(=O)(O)OC[C@H]3O[C@@H](n4cnc5c(N)ncnc54)[C@H](O)[C@@H]3O)[C@@H](O)[C@H]2O)c1` was tested. Which “NORMALIZED SGLT1 ACTIVITY (%)” value did it give?
**A.** 98%

**Q.** How did the “NORMALIZED SGLT1 ACTIVITY (%)” value turn out when `C[C@H]1[C@H](C)CC[C@]2(C(=O)O)CC[C@]3(C)C(=CC[C@@H]4[C@@]5(C)C[C@@H](O)[C@H](O)[C@@](C)(CO)[C@@H]5[C@H](O)C[C@]43C)[C@H]12` was run?
**A.** 105%

**Q.** How did the “NORMALIZED SGLT1 ACTIVITY (%)” value turn out when `COc1cc(O)c2c(c1)C(=O)c1cc(C)cc(O)c1C2=O` was run?
**A.** 102%

**Q.** Which “NORMALIZED SGLT1 ACTIVITY (%)” value does the source give for `CNC(=O)CSP(=S)(OC)OC` here?
**A.** 92%

**Q.** Which “NORMALIZED SGLT1 ACTIVITY (%)” value does the source give for `CCC(C)C(NC)C(=O)O` (stereo not shown) here?
**A.** 105%

**Q.** Which “NORMALIZED SGLT1 ACTIVITY (%)” value does the source give for `N[C@@H](Cc1ccc(O)c(O)c1)C(=O)O` here?
**A.** 129%

**Q.** With `CCCCC1=NC2(CCCC2)C(=O)N1Cc1ccc(-c2ccccc2-c2nnn[nH]2)cc1` as the molecule, how does the “NORMALIZED SGLT1 ACTIVITY (%)” value read?
**A.** 117%

**Q.** How did the “NORMALIZED SGLT1 ACTIVITY (%)” value turn out when `CN(C)CCc1c[nH]c2ccc(CS(=O)(=O)N3CCCC3)cc12` was run?
**A.** 103%

**Q.** With `CCNc1nc(Cl)nc(NC(C)C)n1` as the molecule, how does the “NORMALIZED SGLT1 ACTIVITY (%)” value read?
**A.** 154%

**Q.** For `COc1ccc(OC)c(C(O)C(C)N)c1.Cl` (stereo not shown), which “NORMALIZED SGLT1 ACTIVITY (%)” value is on record?
**A.** 98%

**Q.** Which “NORMALIZED SGLT1 ACTIVITY (%)” value does the source give for `CN(C)CCCO[C@@H]1[C@H]2OC(C)(C)O[C@H]2O[C@@H]1[C@H](O)CO.Cl` here?
**A.** 88%

**Q.** Which “NORMALIZED SGLT1 ACTIVITY (%)” value does the source give for `CC(Cc1cccc(C(F)(F)F)c1)NCCOC(=O)c1ccccc1.Cl` (stereo not shown) here?
**A.** 73%

**Q.** Which “NORMALIZED SGLT1 ACTIVITY (%)” value does the source give for `CCOc1nc2cccc(C(=O)OC(C)OC(=O)OC3CCCCC3)c2n1Cc1ccc(-c2ccccc2-c2nnn[nH]2)cc1` (stereo not shown) here?
**A.** 36%

**Q.** How did the “NORMALIZED SGLT1 ACTIVITY (%)” value turn out when `COc1c2ccoc2cc2oc(=O)ccc12` was run?
**A.** 180%

**Q.** Which “NORMALIZED SGLT1 ACTIVITY (%)” value does the source give for `CN1CCCC(n2nc(Cc3ccc(Cl)cc3)c3ccccc3c2=O)CC1.Cl` (stereo not shown) here?
**A.** 72%

**Q.** How did the “NORMALIZED SGLT1 ACTIVITY (%)” value turn out when `CC1(C)O[C@]2(C)CC[C@H]1CC2` was run?
**A.** 132%

**Q.** How did the “NORMALIZED SGLT1 ACTIVITY (%)” value turn out when `O=C(NCO)c1cccnc1` was run?
**A.** 90%

**Q.** For `C=CC(C)(O)CC/C=C(\C)CCC=C(C)C` (stereo not shown), which “NORMALIZED SGLT1 ACTIVITY (%)” value is on record?
**A.** 127%

**Q.** How did the “NORMALIZED SGLT1 ACTIVITY (%)” value turn out when `Cc1c(O)c(O)cc2c1CC=C1[C@@]2(C)CC[C@@]2(C)C3C[C@](C)(C(=O)O)CC[C@]3(C)CC[C@]12C` (stereo partly shown) was run?
**A.** 378%

**Q.** With `CCN(CC)CCNC(=O)c1cc(Br)c(N)cc1OC` as the molecule, how does the “NORMALIZED SGLT1 ACTIVITY (%)” value read?
**A.** 91%

**Q.** `C[C@H]1C(=O)CC[C@@H]2[C@]1(C)CC[C@H]1[C@@]2(C)CC[C@@]2(C)[C@@H]3CC(C)(C)CC[C@]3(C)CC[C@]12C` was tested. Which “NORMALIZED SGLT1 ACTIVITY (%)” value did it give?
**A.** 102%

**Q.** `C=C1CCC2C(CC2(C)C)C(=C)CC/C1=N/O` (stereo not shown) was tested. Which “NORMALIZED SGLT1 ACTIVITY (%)” value did it give?
**A.** 77%

**Q.** Which “NORMALIZED SGLT1 ACTIVITY (%)” value does the source give for `O=C(O)c1cccc(O)c1O` here?
**A.** 128%

**Q.** For `C[C@@H]1O[C@@H](O[C@H]2[C@H](Oc3cc(O)c4c(=O)cc(-c5ccc(O)cc5)oc4c3)O[C@H](CO)[C@@H](O)[C@@H]2O)[C@H](O)[C@H](O)[C@H]1O`, which “NORMALIZED SGLT1 ACTIVITY (%)” value is on record?
**A.** 160%

**Q.** `CC(C)CCCC(C)C1CCC2C3=CC[C@H]4C[C@@H](O)CC[C@]4(C)C3CC[C@@]21C` (stereo partly shown) was tested. Which “NORMALIZED SGLT1 ACTIVITY (%)” value did it give?
**A.** 149%

**Q.** How did the “NORMALIZED SGLT1 ACTIVITY (%)” value turn out when `CC(=O)O[C@H]1CCC2(C)C(=CCC3C2CCC2(C)C3CC3OC4(CCC(C)CO4)[C@@H](C)C32)C1` (stereo partly shown) was run?
**A.** 109%

**Q.** `CCn1nc(C(=O)O)c(=O)c2cc3c(cc21)OCO3` was tested. Which “NORMALIZED SGLT1 ACTIVITY (%)” value did it give?
**A.** 122%
